In this assay the test system is Plasmodium falciparum. The assay is described as follows: Primary screen in NF54 nanoGlo assay, in single point, at 2uM, 72h; a lower Z score goes with more inhibition. The class given is functional, Erythrocyte. The conditions noted are these: timepoint 72 hour.

Several values for one entry are separate records, joined by “and”; a condition that tells them apart may be missing. Equal values may be shown once. In all, about 150,000 compounds went through this assay and about 540 (0.36%) showed an effect of 50% or more. The list shows a part of the results.

A word on the % Inhibition: it is the drop in the measured response relative to a control, in per cent.

Regarding `Cc1cc(=O)[nH]cc1C(=O)N(Cc1cccnc1)Cc1ccco1`, the “% Inhibition” value was -10% and the Z score was 1.03.
For `O=C(c1c(F)ccc2c1OCO2)N1CCO[C@@]2(CCCOC2)C1`, the “% Inhibition” value was -3% and the Z score is recorded as 0.6.
On to `O=C1CN(c2ccc(CNC(=O)NCc3cccs3)cc2)CCN1`, for which the “% Inhibition” value is listed as -3% and the Z score was determined as 0.57.
The corresponding values for `Cc1cc(NC(=O)CN2CCCC[C@H]2C(N)=O)ccc1N1CCCC1` are -5% and 0.51.
As to `CCCCS(=O)(=O)NC[C@H](O)CN1CCC(C)CC1`, the “% Inhibition” value was 8% and the Z score is -1.05.
As to `O=C(Cc1c(F)cccc1Cl)Nc1cc(N2CCCC2=O)ccc1Cl`, the “% Inhibition” value worked out at 0% and the Z score is reported as -0.08.
`O=C(NCc1ccc(OCc2cccnc2)cc1)c1ccc2c(c1)OCO2`: the “% Inhibition” value is -1% and the Z score is reported as 0.14.
The corresponding values for `CCn1c(Cn2cnc3ccccc3c2=O)nc2c(F)cccc21` are -8% and 1.05.
In the case of `CN1CCCN(C(=O)c2ccc(Cl)cc2O)CC12CCNCC2`, the “% Inhibition” value is reported as -2% and the Z score amounted to 0.27.
Regarding `CC(C)c1ncc(C(=O)N2CCCCC3CCCCC32)s1` (stereo not drawn), the “% Inhibition” value is given as -5% and the Z score is reported as 0.7.
Turning to `Cc1cc(=O)n2nc(COc3nc(C(C)C)no3)sc2n1`, the “% Inhibition” value is -3% and the Z score is listed as 0.44.
For the compound `COC(=O)c1nsc2cc(C#N)ccc12`, the “% Inhibition” value is reported as -14% and the Z score stood at 2.02.
Turning to `COc1ccccc1N1C(=O)C2C(c3cccs3)NC(Cc3ccccc3)(C(=O)O)C2C1=O` (stereo not drawn), the “% Inhibition” value is -13% and the Z score was 1.42.
As for `C[C@@H](CC1CCCC1)C(=O)Nc1cnn(Cc2cnn(C)c2)c1`, the “% Inhibition” value was -11% and the Z score was determined as 1.36.
Regarding `CC(C)N(C(=O)Cc1csc(NC(=O)c2ccco2)n1)C1CCC1`, the “% Inhibition” value is on record as -3% and the Z score was 0.32.
For `Cn1ccnc1CNC(=O)N1CCC(Oc2cccc(C(F)(F)F)c2)CC1`, the “% Inhibition” value is listed as 6% and the Z score was -0.54.
`O=C(c1cc(-c2ccc(F)cc2)[nH]n1)N1CCC(N2CCCCC2)CC1`: the “% Inhibition” value worked out at 26% and the Z score is -2.98.
`COc1ccc(-c2ncc3c(n2)CCN(S(=O)(=O)c2ccccc2C(F)(F)F)C3)cc1`: the “% Inhibition” value is reported as -2% and the Z score was determined as 0.24.
On to `CC(c1nnnn1C1CCCCC1)N1CCC2OCCCC2C1` (stereo not drawn), for which the “% Inhibition” value is recorded as -2% and the Z score was determined as 0.38.
Take `c1cnc(-c2ccnc(NC3CCC4CCCC4C3)n2)cn1` (stereo not drawn): the “% Inhibition” value came out at 5% and the Z score was -0.56.
`O=C(Cc1cc(-c2ccccc2)on1)N1CCOC[C@@H]1CCO`: the “% Inhibition” value was -9% and the Z score was 1.29.
Consider `NC(=O)C1CCN(C(=O)CN(Cc2ccccn2)C2CC2)CC1`, for which the “% Inhibition” value is -3% and the Z score was 0.3.
For the compound `COc1ccc(C2C(CNC(C)c3ccncc3)CCN2C)cc1` (stereo not drawn), the “% Inhibition” value is on record as -11% and the Z score was determined as 1.28.
As for `Cc1ccc(OCCC(=O)N[C@H]2CCS(=O)(=O)C2)cc1C`, the “% Inhibition” value is recorded as -1% and the Z score was 0.1.
For the compound `CCC#CCN1CCCn2nc(CCC(=O)N3CCC(O)CC3)cc2C1`, the “% Inhibition” value is -11% and the Z score was found to be 2.09.
With `Cc1c[nH]c(C(=O)NCCc2ccc(C)s2)n1`, the “% Inhibition” value is reported as 2% and the Z score was -0.31.
Consider `Cc1noc2nc(CCC(=O)Nc3cccc(Br)c3)nc(N3CCCCCC3)c12`, for which the “% Inhibition” value was 9% and the Z score is on record as -1.34.
As for `Cc1ccc2c(=O)c(-c3nc(-c4ccc(F)cc4)no3)cn(CC(=O)Nc3ccccc3C)c2n1`, the “% Inhibition” value is -18% and the Z score is given as 1.58.
The corresponding values for `COc1cc2c(cc1OC)[C@H](c1cccc(Cl)c1)N(CC1CCCCC1)CC2` are 0% and 0.06.
With `Cc1noc(C)c1CCC(=O)N[C@H]1CCN(Cc2ccccn2)C[C@@H]1O`, the “% Inhibition” value is given as -10% and the Z score is 1.96.
The corresponding values for `Cc1n[nH]c(C)c1S(=O)(=O)N1C[C@H]2CC[C@@H](C1)N(C)C2` are -16% and 1.94.
Regarding `Cc1nc(CCNc2ccc(C(=O)Nc3nncs3)cn2)cs1`, the “% Inhibition” value is -7% and the Z score is 0.98.
The corresponding values for `C[C@H](Oc1ccccc1)C(=O)N1CCC(N2C(=O)COC2=O)CC1` are 0% and 0.05.
The corresponding values for `Cc1ccc2[nH]c(C)c(CC(=O)Nc3cc(C(C)(C)C)nn3[C@H]3CCS(=O)(=O)C3)c2c1` are 3% and -0.4.
Take `O=C(NS(=O)(=O)C[C@H]1CCCO1)C1CCCC1`: the “% Inhibition” value is reported as -5% and the Z score turned out to be 0.79.
The like results for `Cc1cc(=O)n2nc(-c3ccccc3Cl)nc2n1CC(=O)N1CCN(c2ccccc2)CC1` were, in that order, -11% and 1.34.
The corresponding values for `COCc1ncc(C)n1CCNC(=O)c1cn(C)nc1C` are -15% and 1.7.
Regarding `COc1ccc(S(=O)(=O)N2CCOCC2)cc1NC(=O)[C@@H]1Cc2ccccc2C(=O)O1`, the “% Inhibition” value is reported as -3% and the Z score stood at 0.44.
Consider `O=S(=O)(c1cccs1)n1ccnc1`, for which the “% Inhibition” value is -12% and the Z score is 2.22.
With `O=C(C[n+]1ccn2cccc2c1-c1ccccc1)c1ccccc1`, the “% Inhibition” value is listed as 3% and the Z score is reported as -0.43.
The like results for `CCc1ccc(NC(=O)Cn2cc(-c3nc(C(C)C)no3)ccc2=O)cc1` were, in that order, -2% and 0.33.
As for `CC[C@H](C)NS(=O)(=O)c1cc(-c2nnc(C)o2)cs1`, the “% Inhibition” value is -6% and the Z score is 0.73.
As for `CC(C)c1ccc(-n2cc(-c3ccccc3)nc2NC(=O)CN(CCN(C)C)C(=O)c2ccccc2)cc1`, the “% Inhibition” value is given as -6% and the Z score is recorded as 0.83.
Regarding `c1ccc(COc2ccc3c(c2)CCCN3)cc1`, the “% Inhibition” value is on record as -8% and the Z score was determined as 1.42.
For the compound `CN1CCN(C)[C@@H](CNS(=O)(=O)c2ccccc2C(C)(C)C)C1`, the “% Inhibition” value was -10% and the Z score is recorded as 1.02.
For the compound `Cc1ccccc1-c1cn2c(C(=O)N(C)[C@@H](C)c3ccccn3)csc2n1`, the “% Inhibition” value is listed as 4% and the Z score is on record as -0.68.
The like results for `Cc1nc(C(=O)NCCCN(C)c2ccccc2)c(C)s1` were, in that order, -11% and 1.17.
In the case of `COc1ccc([C@H]2CC(=O)Nc3nc(N)sc32)cc1OCc1ccc(F)cc1`, under “2 µM”, the “% Inhibition” value was -12% and -24%; the Z score was 1.6 and 3.09.
For the compound `Cc1cc(C(=O)N(C)Cc2ccccc2O)c2nc3n(c2n1)CCCCC3`, the “% Inhibition” value is on record as -7% and the Z score came out at 1.35.
As for `Cc1cc(C)n([C@@H](C)CNC(=O)c2cc(C(F)(F)F)n[nH]2)n1`, the “% Inhibition” value was -2% and the Z score is given as 0.23.
Regarding `O=C1CCC2(CCN(C(=O)Cc3ccc(Cl)c(Cl)c3)CC2)N1`, the “% Inhibition” value is -12% and the Z score was found to be 2.43.
The corresponding values for `Cc1ccnc2nc(-c3nc([C@H]4CCOC4)no3)nn12` are -14% and 1.89.
Consider `O=C(Cc1n[nH]c(=O)c2ccccc12)NC[C@@H]1CCCN2CCCC[C@H]12`, for which the “% Inhibition” value is reported as -13% and the Z score amounted to 1.64.
Regarding `O[C@@H]1C[C@H](O)C12CCN(Cc1ccc3ccn(Cc4ccccc4)c3c1)CC2`, the “% Inhibition” value was -13% and the Z score came out at 1.32.
As for `CCCN(C(=O)c1cccs1)C1CCN(C(=O)c2n[nH]c(C)c2C)CC1`, the “% Inhibition” value is -11% and the Z score is 1.4.
In the case of `O=C(NCC1(N2CCOCC2)CCCCCC1)c1cn(CCc2ccccc2)nn1`, the “% Inhibition” value is 6% and the Z score is listed as -0.52.
The like results for `COc1ccccc1NC(=O)CN1CCO[C@H]2COCC[C@H]21` were, in that order, -7% and 1.42.
In the case of `CC(C)(CN1C(=O)C2CC3CCCCC3N2C1=O)N1CCOCC1` (stereo not drawn), the “% Inhibition” value is -13% and the Z score is 1.4.
Take `COC1CCCCC1NC(=O)N(CCC(F)(F)F)C1CCC1` (stereo not drawn): the “% Inhibition” value is on record as -7% and the Z score came out at 1.12.
Turning to `CCOC(=O)c1cnc2nc(C)ccc2c1N1CCOCC1`, the “% Inhibition” value is -18% and the Z score was 1.49.
In the case of `O=C(Nc1ccc(Cl)c(Cl)c1)[C@@H]1CS(=O)(=O)CN1C(=O)c1ccccc1`, the “% Inhibition” value was -9% and the Z score is 1.75.
As for `O=C(O)CN1CC[C@H](OCCCc2ccccc2)C1`, the “% Inhibition” value is listed as -10% and the Z score is 1.3.
With `CCOc1ncccc1-c1nc(C)nc2c1cnn2C`, the “% Inhibition” value is 0% and the Z score is -0.1.
The corresponding values for `Cc1nc(-c2c(-c3ccccc3)ncn2[C@H](C)C(N)=O)c[nH]1` are -5% and 0.94.
For the compound `O=C(c1ccco1)N1CCN(Cc2c(-c3ccc(Cl)cc3)nc3ccc(-c4cccc(C(F)(F)F)c4)cn23)CC1`, the “% Inhibition” value was -31% and the Z score came out at 3.
The corresponding values for `CC(C)[C@@H](C(=O)N(C)c1ccn(C)n1)c1cccnc1` are -9% and 1.71.
For the compound `CCn1cnc2c1c(=O)n(CCC(C)C)c(=O)n2-c1ccc(C(C)C)cc1`, the “% Inhibition” value is given as -9% and the Z score amounted to 1.15.
As for `NC(=O)C1CCN(CCC(=O)N2CCc3cc4ccc3[C@@H]2c2cccc(c2)OCCCNC(=O)c2cc(ccc2O)O4)CC1`, the “% Inhibition” value is listed as 92% and the Z score was -17.59.
For `COc1cccc(NCc2ccccc2-c2nnc(-c3ccccc3Cl)o2)c1`, the “% Inhibition” value was -9% and the Z score was 1.44.
As to `O=C(NC[C@H]1CCCN2CCCC[C@@H]12)c1ccc2c(c1)OCO2`, the “% Inhibition” value is on record as -4% and the Z score is recorded as 0.44.
Consider `N#Cc1cccnc1NCCNc1cccc2ccccc12`, for which the “% Inhibition” value is recorded as 3% and the Z score is on record as -0.29.
With `C[C@@H](c1cccc(Br)c1)N1CCC(c2nncn2C)CC1`, the “% Inhibition” value was -13% and the Z score is 2.07.
The corresponding values for `CCS(=O)(=O)N1CCc2cc(S(=O)(=O)N(C)Cc3ccccc3)ccc2C1` are 3% and -0.27.
As to `C[C@@H](C(=O)Nc1nnc(C2(c3ccccc3)CC2)s1)c1cccs1`, the “% Inhibition” value is -11% and the Z score is given as 2.15.
Take `CNC(=O)[C@H]1CC[C@H](CNc2ccc(Cl)c(C)n2)CC1`: the “% Inhibition” value is -5% and the Z score turned out to be 0.55.
On to `Cc1nc(CN(C)CC(=O)NCCOc2ccccc2)no1`, for which the “% Inhibition” value was -6% and the Z score was 0.85.
`CCCN(C)c1cc(Oc2ccc(C)cc2OC)ncn1`: the “% Inhibition” value came out at 1% and the Z score was -0.2.
`CC(C)N(C)S(=O)(=O)N1CCC[C@@H]1CC(=O)c1ccc(F)cc1`: the “% Inhibition” value is given as -12% and the Z score amounted to 1.47.
The like results for `CCNc1ncc(S(=O)(=O)N2CCC[C@H](N(C)C)C2)cc1Cl` were, in that order, -9% and 1.1.
Turning to `O=C(CC1=CCCCC1)NC[C@]1(O)CCOC1`, the “% Inhibition” value is reported as -6% and the Z score is given as 0.85.
`NC(=O)c1ccccc1NC(=O)c1cnc(OC2CCOCC2)c(Cl)c1`: the “% Inhibition” value was -6% and the Z score is listed as 1.16.
`CC(C)c1nc(CCN(C)C(=O)c2nc3c(s2)CCCC3)no1`: the “% Inhibition” value is 17% and the Z score was -2.24.
Take `CC(=O)N1CC[C@@](N)(C(=O)Nc2cnc3ccccc3c2)C1`: the “% Inhibition” value was -5% and the Z score is 0.79.
Take `O=C(c1cc2sccc2n1CCc1ccccc1)N1CCCC1`: the “% Inhibition” value was -19% and the Z score is listed as 3.48.
